Consider 4 compounds from article PMC11876601 (Molecular Systems Biology, 2025).

Common to all, as to experiment: cells
Assay [1] has as its system HuP-T4. Further details: Viability of PDAC cell lines, ATPlite luminescence, 11-dose single-agent curve fit. The following applies: Homo sapiens, HuP-T4, 72 h, read-out: EC50 [nM]. Here is the method: (§1) Afterward, small amounts were transferred to 384-well intermediate plates (Greiner Bio-One GmbH, Germany). […] For drug combination screening, 1000 to 5000 cells were seeded into 384-well plates (CulturPlate™, Perkin Elmer, MA, USA) using a Multidrop™ Combi Reagent Dispenser (Thermo Scientific, MA, USA) in 50 µl medium per well 24 h prior to drug treatment (seeding densities see Appendix Table S1). […] The final DMSO concentration in each well was 0.2%. […] Eight wells per plate without library drug served as negative controls, and sixteen wells per plate containing 5 µM Staurosporine served as positive controls. […] Next, we analyzed the drug sensitivity of immortalized duct cell line HPDE to detect effects unrelated to pancreatic cancer.

In assay [2] the test system is Capan-1. Further details: Viability of PDAC cell lines, ATPlite luminescence, 11-dose single-agent curve fit. Conditions: Homo sapiens, CAPAN-1, 72 h, read-out: EC50 [nM]. Here is the method: as §1
The subject of assay [3] is PANC-1. Further details: Viability of PDAC cell lines, ATPlite luminescence, 11-dose single-agent curve fit. The following applies: Homo sapiens, PANC-1, 72 h, read-out: EC50 [nM]. As for the experimental part: as §1
The test system of assay [4] is PaTu-8988-T. Further details: ATPlite luminescence viability of PDAC cell lines, 11-dose single-agent curves, 4-parameter fit. Conditions: Homo sapiens, PaTu 8988t, 72 h, read-out: EC50 [nM]. Here is the method:
as §1

In assay [5] the test system is PSN-1. Further details: ATPlite luminescence viability of PDAC cell lines, 11-dose single-agent curves, 4-parameter fit. Conditions: Homo sapiens, PSN1, 72 h, read-out: EC50 [nM]. As for the experimental part: as §1
The test system of assay [6] is Colo-357. Further details: ATPlite luminescence viability of PDAC cell lines, 11-dose single-agent curves, 4-parameter fit. Conditions: Homo sapiens, COLO357, 72 h, read-out: EC50 [nM]. Here is the method: as §1
Assay [7] deals with HPDE. Further details: ATPlite luminescence viability of PDAC cell lines, 11-dose single-agent curves, 4-parameter fit. Conditions: HPDE, 72 h, read-out: EC50 [nM]. Here is the method:
as §1

In assay [8] the test system is BxPC-3. Further details: ATPlite luminescence viability of PDAC cell lines, 11-dose single-agent curves, 4-parameter fit. Conditions: Homo sapiens, BXPC-3, 72 h, read-out: EC50 [nM]. Here is the method: as §1
The subject of assay [9] is FAMPAC. Further details: ATPlite luminescence viability of PDAC cell lines, 11-dose single-agent curves, 4-parameter fit. Conditions: 72 h, read-out: EC50 [nM]. As for the experimental part: as §1
Assay [10] deals with Suit2-07. Further details: ATPlite luminescence viability of PDAC cell lines, 11-dose single-agent curves, 4-parameter fit. Conditions: 72 h, read-out: EC50 [nM]. As for the experimental part: as §1
For assay [11], the system named is Dan-G. Further details: ATPlite luminescence viability of PDAC cell lines, 11-dose single-agent curves, 4-parameter fit. Conditions: 72 h, read-out: EC50 [nM]. As for the experimental part: as §1
Assay [12] relates to AsPC-1. Further details: ATPlite luminescence viability of PDAC cell lines, 11-dose single-agent curves, 4-parameter fit. The following applies: Homo sapiens, ASPC1, 72 h, read-out: EC50 [nM]. Here is the method: as §1
Assay [13] has as its system MiaPaCa-2. Further details: ATPlite luminescence viability of PDAC cell lines, 11-dose single-agent curves, 4-parameter fit. Conditions: Homo sapiens, MIA PaCa-2, 72 h, read-out: EC50 [nM]. As for the experimental part:
as §1

Assay [14] has as its system HuP-T4. Further details: ATPlite luminescence viability of PDAC cell lines, 11-dose single-agent curves, 4-parameter fit. Conditions: Homo sapiens, HuP-T4, 72 h, read-out: EC50 [nM]. As for the experimental part: as §1
Assay [15] concerns Capan-1. Further details: ATPlite luminescence viability of PDAC cell lines, 11-dose single-agent curves, 4-parameter fit. The following applies: Homo sapiens, CAPAN-1, 72 h, read-out: EC50 [nM]. As for the experimental part:
as §1

In assay [16] the test system is PANC-1. Further details: ATPlite luminescence viability of PDAC cell lines, 11-dose single-agent curves, 4-parameter fit. The following applies: Homo sapiens, PANC-1, 72 h, read-out: EC50 [nM]. Here is the method: as §1
Assay [17] deals with PaTu-8988-T. Further details: Viability of PDAC cell lines, ATPlite luminescence, 11-dose single-agent curve fit. The following applies: Homo sapiens, PaTu 8988t, 72 h, read-out: EC50 [nM]. As for the experimental part: as §1
The subject of assay [18] is PSN-1. Further details: Viability of PDAC cell lines, ATPlite luminescence, 11-dose single-agent curve fit. The following applies: Homo sapiens, PSN1, 72 h, read-out: EC50 [nM]. Here is the method: as §1
Assay [19] relates to Colo-357. Further details: Viability of PDAC cell lines, ATPlite luminescence, 11-dose single-agent curve fit. Conditions: Homo sapiens, COLO357, 72 h, read-out: EC50 [nM]. Here is the method:
as §1

For assay [20], the system named is HPDE. Further details: Viability of PDAC cell lines, ATPlite luminescence, 11-dose single-agent curve fit. The following applies: HPDE, 72 h, read-out: EC50 [nM]. As for the experimental part:
as §1

Assay [21] deals with FAMPAC. Further details: Viability of PDAC cell lines, ATPlite luminescence, 11-dose single-agent curve fit. The following applies: 72 h, read-out: EC50 [nM]. As for the experimental part: as §1
Assay [22] concerns Suit2-07. Further details: Viability of PDAC cell lines, ATPlite luminescence, 11-dose single-agent curve fit. Conditions: 72 h, read-out: EC50 [nM]. As for the experimental part:
as §1

In assay [23] the test system is Dan-G. Further details: Viability of PDAC cell lines, ATPlite luminescence, 11-dose single-agent curve fit. Conditions: 72 h, read-out: EC50 [nM]. Here is the method: as §1
Assay [24] has as its system AsPC-1. Further details: Viability of PDAC cell lines, ATPlite luminescence, 11-dose single-agent curve fit. The following applies: Homo sapiens, ASPC1, 72 h, read-out: EC50 [nM]. Here is the method: as §1
Assay [25] concerns MiaPaCa-2. Further details: Viability of PDAC cell lines, ATPlite luminescence, 11-dose single-agent curve fit. Conditions: Homo sapiens, MIA PaCa-2, 72 h, read-out: EC50 [nM]. Here is the method:
as §1

Assay [26] deals with BxPC-3. Further details: Viability of PDAC cell lines, ATPlite luminescence, 11-dose single-agent curve fit. The following applies: Homo sapiens, BXPC-3, 72 h, read-out: EC50 [nM]. As for the experimental part: as §1

Read-outs that look alike come from different tables or passages of the source.

Usually EC50 stands for the midpoint of the concentration-response curve. As for `COc1cc(OC)cc(N(CCNC(C)C)c2ccc3ncc(-c4cnn(C)c4)nc3c2)c1` [Erdafitinib], the concentration for a half-maximal effect (EC50) is 95.2 nM with HuP-T4 [1]; 5060 nM in the assay with Capan-1 [2]; more than 10000 nM in the assay on PANC-1 [3]; 4390 nM in the assay on PaTu-8988-T [4]; more than 10000 nM with PSN-1 [5]; 3000 nM in the assay with Colo-357 [6]. In addition, the EC50 with HPDE [7] was more than 10000 nM; in the assay on BxPC-3 [8], more than 10000 nM; with FAMPAC [9], 4680 nM; in the assay with Suit2-07 [10], 2270 nM; with Dan-G [11] it was more than 10000 nM; with AsPC-1 [12] it was 6540 nM. For the same compound, in the assay with MiaPaCa-2 [13], the EC50 came to 1940 nM.
As for `CCc1cnn2c(NCc3ccc[n+]([O-])c3)cc(N3CCCC[C@H]3CCO)nc12` [Dinaciclib], the EC50 was determined as 5.08 nM with PSN-1 [5]; 7.28 nM in the assay with Colo-357 [6]; 10.6 nM with HuP-T4 [14]; 7.25 nM in the assay with HPDE [7]; 7.38 nM in the assay with Capan-1 [15]; 7.16 nM in the assay on BxPC-3 [8]. For the same compound, the EC50 in the assay on FAMPAC [9] was 4.36 nM; with PANC-1 [16], 19.4 nM; in the assay with Suit2-07 [10], 12.4 nM; with Dan-G [11], 9.31 nM; in the assay on AsPC-1 [12] it was 11.8 nM; in the assay on MiaPaCa-2 [13] it was 3.21 nM.
Consider `Cc1ccc(NC(=O)c2ccc(CN3CCN(C)CC3)cc2)cc1Nc1nccc(-c2cccnc2)n1` [Imatinib], for which the concentration giving a half-maximal response (EC50) with PaTu-8988-T [17] is more than 10000 nM; in the assay with PSN-1 [18], 3840 nM; in the assay on Colo-357 [19], 2150 nM; with HuP-T4 [1], more than 10000 nM; in the assay on HPDE [20] it was 8790 nM; with Capan-1 [2], more than 10000 nM. For the same compound, the EC50 in the assay on FAMPAC [21] is more than 10000 nM; in the assay on PANC-1 [3] it was more than 10000 nM; in the assay with Suit2-07 [22], 4070 nM; in the assay on Dan-G [23], more than 10000 nM; with AsPC-1 [24], more than 10000 nM; with MiaPaCa-2 [25], 7160 nM. For the same compound, the EC50 in the assay on BxPC-3 [8] is more than 10000 nM.
Consider `C[C@@H]1CCN(C(=O)CC#N)C[C@@H]1N(C)c1ncnc2[nH]ccc12` [Tofacitinib], for which the half-maximal effective concentration (EC50) in the assay with PSN-1 [18] was 5480 nM; in the assay on Colo-357 [19], 23.6 nM; in the assay on HPDE [20], 2.55 nM; in the assay with Capan-1 [2], 1430 nM; with BxPC-3 [26] it was 0.2 nM; with FAMPAC [21] it was 3450 nM. In addition, the EC50 in the assay with PANC-1 [3] came to 0.09 nM; with Suit2-07 [22] it was 0.09 nM; with Dan-G [23] it was 259 nM; with AsPC-1 [24] it was 123 nM.
